# Out of some 210,000 compounds screened, about 5,900 (2.8%) were called active. The shares of active, inactive and inconclusive entries below differ from those in the screen. The call rests on the fitted dose curve; in most records, active means well fitted activation curve with a large enough effect; inconclusive means small, poorly fitted or top-dose-only effect; inactive means no such curve, though single readings can be large or run the other way. Where the call is inconclusive, the potency comes from a doubtful curve fit.
# Experiment: qHTS Assay for Enhancers of SMN2 Splice Variant Expression; further: nearly all actives have a fitted effect of over 55% in size; on activity change, positive = activation: % of control where 0% means no effect
# Details: HEK293 SMN2-luciferase splicing reporter, luminescence, 30-36 h; activity change, positive = activation: at 46.1 µM (top of the series)
# Summary of the method: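 qHTS luciferase splicing reporter: luminescence rises when SMN2 exon 7 is included in transfected HEK293 cells. Compound exposure lasted 30-36 h at 37C, with 4.5 mM final sodium butyrate as control, followed by a ONE-Glo read.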
# Potency means the concentration at half of the fitted maximal effect; tags describe the fitted curve by direction and shape.
Compound,"activity change, positive = activation",Potency
COc1cc(-c2nc(Cn3nnc(C(=O)Nc4ccccc4)c3C)c(C)o2)cc(OC)c1OC,inactive: -4.32%,–
O=C(O)c1cccc(NC(=S)NC(=O)c2ccc(-c3ccccc3)cc2)c1,–,active: 3.16 µM
O=S(=O)(c1ccccc1)N1CCC2(CCN(Cc3ccncc3)CC2)CC1,inactive: -20.8%,–
N/C(=N\OC(=O)Oc1ccccc1)c1ccc(Br)cc1,inactive: -12.5%,–
Cc1ccc2nc(-c3ccccc3F)c(Nc3ccc(Cl)cc3)n2c1,inactive: -19%,–
Cc1ccc(/C=C2/CCc3c([nH]c4ccccc34)C2=O)cc1,–,active: 6.31 µM
O=C(Nc1ccc(NC(=O)c2ccco2)cc1)c1ccc2c(c1)OCCO2,inactive: 6.84%,–
Cn1c(=O)n(C)c2cc(NS(=O)(=O)c3ccc(F)cc3)ccc21,–,"inconclusive: 11.2 µM [activator, partial curve]"
Cc1ccc2c(CN3CCN(C(=O)c4ccc(F)cc4)CC3)cc(=O)oc2c1,inactive: -5.11%,–
O=C(NC1=NCCS1)c1cccs1,–,active: 28.2 µM
O=C1Nc2ccccc2N(O)N1c1cc(-c2ccc(Cl)cc2)[nH]n1,inactive: -5.36%,–
O=C(NCCN1C(=O)S/C(=C\c2ccccc2F)C1=O)C1CCN(S(=O)(=O)c2cccs2)CC1,–,"inconclusive: 11.2 µM [activator, partial curve, poor fit]"
Cn1nc(-c2ccc(Cl)cc2)c2cc(C(=O)N3CCCC3)sc21,–,"inconclusive: 11.2 µM [activator, single point]"
CC(=O)O[C@H]1CC[C@@]2(C)[C@@H](CC[C@H]3[C@H]2CC(=O)[C@@]2(C)[C@@H]3C[C@H]3CC(C)=CC(=O)[C@H]32)C1,inactive: 12.5% [at 9.22 µM],–
N#C/C(C(=O)c1ccccc1)=C1/CCCCCN1,–,"inconclusive: 11.2 µM [activator, single point]"
COc1ccc(S(=O)(=O)NCCc2cc3ccc(C)c(C)c3[nH]c2=O)cc1,inactive: 4.46%,–
N/C(=N\OC(=O)COc1ccc(Cl)cc1Br)c1ccncc1,–,active: 11.2 µM
CCOC(=O)CNC(=O)CSc1nnc(NC(=O)c2ccc(C)cc2)s1,–,active: 5.01 µM
CC1CCc2nc(NC(=O)C3CC3)sc2C1 (stereo not given),–,"inconclusive: 35.5 µM [activator, single point]"
COCCn1c(SCC(=O)Nc2ccc(C)cc2)nc2c(oc3ccccc32)c1=O,–,"inconclusive: 0.158 µM [activator, full curve, poor fit]"
Fc1ccccc1-c1ccc(/C=N/Nc2nc3ccccc3[nH]2)o1,–,active: 22.4 µM
O=C(Nc1ccccc1N1CCN(c2ccc(F)cc2)CC1)c1ccccc1,–,"inconclusive: 0.0158 µM [activator, full curve, poor fit]"
COc1cc(NS(C)(=O)=O)c(OC)cc1NC(=O)c1ccccc1,–,"inconclusive: 0.0045 µM [activator, full curve, poor fit]"
CCCC(=O)c1ccc(-c2ccccc2)cc1,–,"inconclusive: 0.1 µM [activator, full curve, poor fit]"
COC(=O)c1cc(NC(=O)Nc2ccccc2)ccc1Cl,–,"inconclusive: 0.0056 µM [activator, full curve]"

Compound,"activity change, positive = activation",Potency
COc1ccc(OC)c(NC(=O)Cn2cnc3ccc(S(=O)(=O)N4CCC(C)CC4)cc3c2=O)c1,inactive: -6.9%,–
Cc1nnc(SCC(=O)Nc2ccc3c(c2)OCCO3)s1,inactive: 0.958%,–
CCN(CC(=O)Nc1ccc2c(c1)OCCO2)C(=O)/C=C/c1ccccc1,–,"inconclusive: 2.82 µM [activator, single point]"
COCC(=O)Nc1c(C(=O)Nc2ccc3c(c2)OCCO3)oc2ccccc12,–,active: 7.94 µM
Oc1ccc(/C=N/NC(=S)N/N=C/c2ccc(O)cc2)cc1,–,"inconclusive: 14.1 µM [activator, single point]"
CCc1ccc(Oc2c(C(F)(F)F)oc3c(CN4CCC(C)CC4)c(O)ccc3c2=O)cc1,inactive: -8.22%,–
CCCCn1cnc2sc(-c3ccccc3)cc2c1=O,inactive: 24.4%,–
CC(C)(C)NC(=O)C(=O)NNC(=O)c1ccccc1,–,"inconclusive: 5.62 µM [activator, single point]"
O=C(NC1CC1)c1cc2c(s1)-c1ccccc1OC2,inactive: -46.3%,–
O=C(NC1CCCCCC1)c1ccc(CN2CCOCC2)cc1,–,"inconclusive: 35.5 µM [activator, single point]"
Cc1cc(NC(=O)COC(=O)c2ccccc2S(=O)(=O)N(C)c2ccccc2)no1,–,active: 6.31 µM
CCCCNc1cnn(-c2ccccc2)c(=O)c1Cl,–,"inconclusive: 15.8 µM [activator, single point]"
CCNc1ccc(C(=O)OCC)cc1NC(=O)c1cccc(S(=O)(=O)N(C)c2ccccc2)c1,inactive: -20%,–
COc1cc2c(cc1OC)C(C)N(C(=O)C1COc3ccccc3O1)CC2 (stereo not given),–,"inconclusive: 10 µM [activator, partial curve, poor fit]"
Cn1c(N)c(C(=O)Nc2ccc3ccccc3c2)sc1=S,–,"inconclusive: 11.2 µM [activator, partial curve]"
CCCc1cc(C(=O)Nc2ccccc2SC)no1,–,"inconclusive: 22.4 µM [activator, single point]"
COc1cc(OC)cc(-c2nc(-c3ccccc3)no2)c1,–,active: 22.4 µM
COc1cc(CN2CCN(c3ccccc3F)CC2)cc(OC)c1O,–,"inconclusive: 22.4 µM [activator, partial curve, poor fit]"
COc1ccc(Nc2cc(C)c3ccccc3n2)cc1,–,"inconclusive: 6.31 µM [activator, partial curve]"
COc1ccc(-c2nnc(SCC(=O)N3CCCCC3)o2)c(OC)c1,–,"inconclusive: 12.6 µM [activator, single point]"
CCC(=O)c1ccc(-c2ccccc2)cc1,–,"inconclusive: 35.5 µM [activator, single point]"
COc1ccccc1N1CCN(c2ccc(-c3ccccc3)nn2)CC1,–,"inconclusive: 4.47 µM [activator, partial curve, poor fit]"
Cc1cc2cc(CNC(=O)CC(C)C)ccc2n1C,inactive: -20%,–
COc1ccc(NC(=O)c2ccccc2-c2ccc(C(F)(F)F)cc2)cc1S(=O)(=O)N1CCOCC1,–,"inconclusive: 1.26 µM [activator, full curve, poor fit]"
COc1ccccc1C(=O)N/N=C/c1ccc(Cl)s1,–,"inconclusive: 22.4 µM [activator, partial curve, poor fit]"

Compound,"activity change, positive = activation",Potency
CCOC(=O)C(C)/C(C)=N/NC(=O)c1cc2ccccc2cc1O (stereo not given),–,"inconclusive: 10 µM [activator, partial curve, poor fit]"
CC1(C)CC(O)(CNCc2ccc3c(c2)OCO3)CCO1 (stereo not given),–,"inconclusive: 4.47 µM [activator, full curve, poor fit]"
O=C(Nc1ccccc1Br)C(Cc1ccccc1)NS(=O)(=O)c1cccc2nsnc12 (stereo not given),inactive: 4.26%,–
Cc1ccccc1OCc1nc2c3cnn(C)c3ncn2n1,–,"inconclusive: 22.4 µM [activator, partial curve, poor fit]"
c1ccc(CCNc2nc(-c3ccncc3)cs2)cc1,inactive: -21.2%,–
CC(=NCc1ccncc1)C1=C(O)c2ccccc2C1=O,–,"inconclusive: 2.82 µM [activator, full curve]"
N#Cc1ccc(NC2=NS(=O)(=O)c3ccccc32)cc1,inactive: 9.14%,–
COC(=O)CSc1ccc(S(=O)(=O)N2CCCCCC2)cc1[N+](=O)[O-],inactive: -5.1%,–
CC1(C)Cc2c(c(-c3ccccc3)nc3[nH][nH]c(=O)c23)CO1,inconclusive: 31.9% [activator],–
c1ccc(-c2cc(N3CCCCCC3)n[nH]2)cc1,–,"inconclusive: 12.6 µM [activator, partial curve, poor fit]"
O=C(Nc1ccccc1)N(C1=NCCCCS1)c1cccc2ccccc12,–,"inconclusive: 3.16 µM [activator, full curve, poor fit]"
CCN(CCCNC(=O)c1cc2cc3ccc(OC)cc3nc2s1)c1cccc(C)c1,–,"inconclusive: 5.62 µM [activator, partial curve]"
COc1ccc(Cl)cc1NC(=O)C(=O)N/N=C/c1cc(C)n(-c2ccc(C)cc2)c1C,inactive: 8.85%,–
CCCCCOC(=O)NCC(O)c1ccccc1 (stereo not given),–,"inconclusive: 11.2 µM [activator, partial curve, poor fit]"
Cn1nc(-c2ccc(Cl)cc2)nc2c(=O)n(C)c(=O)nc1-2,–,"inconclusive: 35.5 µM [activator, single point]"
COC(=O)C(C(=O)OC)C(C(=O)OC)C(C(=O)OC)C(=O)OC,–,"inconclusive: 3.16 µM [activator, single point]"
Cc1ccc(-c2csc(N/N=C/c3ccco3)n2)c(C)c1,–,active: 3.98 µM
CC(=O)c1sc(NC(=O)c2c(F)cccc2F)nc1C,inactive: 11.1%,–
Cc1cc(C)n2c(Nc3ccccc3)c(-c3ccccc3)nc2n1,inactive: -0.694%,–
Cc1cccc(C(=O)NC(=S)N2CCc3ccccc3C2)c1,–,"inconclusive: 35.5 µM [activator, single point]"
Cn1ccc(C(=O)Oc2ccc(C(=O)Nc3ccc(F)cc3F)cc2)n1,–,"inconclusive: 15.8 µM [activator, partial curve]"
Cc1ccc(S(=O)(=O)n2nc(-c3ccco3)nc2NCc2ccccc2Cl)cc1,–,"inconclusive: 15.8 µM [activator, single point]"
COc1ccc2sc(/C=C/c3ccccc3O)[n+](C)c2c1,–,"inconclusive: 1.26 µM [activator, full curve, poor fit]"
O=C(Nc1nc2ccccc2[nH]1)c1ccc([N+](=O)[O-])cc1,–,active: 2.51 µM
COc1ccc(OCC(=O)OC(C)CN2CCOCC2)cc1 (stereo not given),–,active: 2.82 µM

# From PubChem BioAssay AID1458 (National Center for Advancing Translational Sciences (NCATS), 2008)
